From article PMC4336329 (PLoS ONE, 2015)
Screen size: about 310,000 compounds; about 2,200 (0.71%) showed an effect of 50% or more. Effects have a minus sign here. Some of the results follow.

The compounds below were run against human ether-à-go-go-related gene (hERG) potassium channel (human, UniProt Q12809) (assay: primary screen, population patch clamp on CHO cells stably expressing hERG).
human ether-à-go-go-related gene (hERG) potassium channel, sequence (Q12809 whole entry, looked up): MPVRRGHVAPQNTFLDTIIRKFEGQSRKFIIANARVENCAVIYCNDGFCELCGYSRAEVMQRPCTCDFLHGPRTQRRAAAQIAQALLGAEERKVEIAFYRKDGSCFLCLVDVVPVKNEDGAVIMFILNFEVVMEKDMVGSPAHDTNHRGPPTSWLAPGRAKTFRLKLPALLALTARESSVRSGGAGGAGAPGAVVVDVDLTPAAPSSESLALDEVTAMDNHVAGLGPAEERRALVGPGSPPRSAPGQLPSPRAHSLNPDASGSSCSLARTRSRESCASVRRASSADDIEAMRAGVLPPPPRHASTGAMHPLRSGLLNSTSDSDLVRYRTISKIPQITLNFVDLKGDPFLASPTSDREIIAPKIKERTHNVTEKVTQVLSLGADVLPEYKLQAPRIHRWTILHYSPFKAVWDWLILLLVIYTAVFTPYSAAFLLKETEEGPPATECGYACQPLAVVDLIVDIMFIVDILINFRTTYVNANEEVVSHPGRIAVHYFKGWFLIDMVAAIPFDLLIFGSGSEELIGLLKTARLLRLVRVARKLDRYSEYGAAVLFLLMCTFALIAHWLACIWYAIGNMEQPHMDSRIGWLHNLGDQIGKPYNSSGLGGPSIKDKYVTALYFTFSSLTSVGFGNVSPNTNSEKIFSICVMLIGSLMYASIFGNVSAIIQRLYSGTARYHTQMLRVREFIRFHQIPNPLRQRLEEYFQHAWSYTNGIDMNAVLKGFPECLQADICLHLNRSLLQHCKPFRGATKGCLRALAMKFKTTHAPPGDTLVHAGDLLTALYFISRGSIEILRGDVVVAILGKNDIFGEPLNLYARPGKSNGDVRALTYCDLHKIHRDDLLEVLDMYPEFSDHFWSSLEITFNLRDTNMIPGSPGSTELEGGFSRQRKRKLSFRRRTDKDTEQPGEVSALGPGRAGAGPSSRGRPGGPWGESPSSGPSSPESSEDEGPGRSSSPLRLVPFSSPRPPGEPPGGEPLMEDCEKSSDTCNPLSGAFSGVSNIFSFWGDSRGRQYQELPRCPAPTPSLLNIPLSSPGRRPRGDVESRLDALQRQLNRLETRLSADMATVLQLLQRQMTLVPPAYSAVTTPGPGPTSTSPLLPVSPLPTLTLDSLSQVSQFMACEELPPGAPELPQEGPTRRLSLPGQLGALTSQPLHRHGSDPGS

SMILES | hERG current change (%, negative = inhibition) at 1uM
CCCN(Cc1ccccc1)C(=S)Nc1ccc(OC(F)F)cc1 | -3.58%
O=[N+]([O-])c1ccccc1-c1ccc(C(=S)N2CCCC2)o1 | 11.5%
CCNC(=O)/C(C#N)=C/c1c(N2CC(C)OC(C)C2)nc2ccccn2c1=O (centres unmarked) | 12.7%
Cc1ccc(S(=O)(=O)C(C#N)c2nc3ccccc3nc2N2CCCC2)cc1 (centres unmarked) | -7.15%
COc1ccc(C(NC(=O)C2C3C=CC(C3)C2C(=O)O)c2ccccc2)cc1 (centres unmarked) | 3.59%
N#Cc1cnc(SCC(=O)N2CCCCC2)nc1N | 15.2%
CC(C(=O)Nc1ccccc1-c1ccccc1)N1CCOCC1 (centres unmarked) | 12.7%
COc1ccccc1Nc1nc(N2CCOCC2)nc(N2CCOCC2)n1 | 10.5%
COc1ccc(C(=O)Nc2ccccc2C(=O)N/N=C/c2ccco2)cc1 | -15.1%
CN(c1ccccc1)c1ccc(/C=C(\CCC(=O)O)c2nc3ccccc3s2)cc1[N+](=O)[O-] | 39.5%
Cc1ccc(-n2nc3c(c2NC(=O)c2ccc4c(c2)OCO4)CS(=O)C3)c(C)c1 (centres unmarked) | 3.77%
COc1ccc(C2C(C(C)=O)=C(O)C(=O)N2CCCn2ccnc2)cc1 (centres unmarked) | 13%
CCOC(=O)C1=C(COC(=O)c2cc(OC)c(OC)cc2[N+](=O)[O-])NC(=O)NC1C (centres unmarked) | 12.4%
Cn1c(SCc2ccccc2)nc2c1c(=O)[nH]c(=O)n2C | 12%
COC(=O)c1ccc(C(=O)OC)c(NC(=O)CSCC(=O)O)c1 | 14.2%
O=C(CCN1CCCO1)N1CCCC(N2CCN(c3cccc(C(F)(F)F)c3)CC2)C1 (centres unmarked) | -2.98%
O=C1c2ccccc2C(Nc2ccc3c(c2)OCCO3)N1Cc1ccccc1 (centres unmarked) | 1.31%
C=CCNC(=O)C1CC(c2cccc(OC)c2)=NO1 (centres unmarked) | 6.1%
Cc1nc2c(cc1NC(=O)C(C)(C)C)nc(C)n2Cc1ccccc1 | 13.2%

SMILES | hERG current change (%, negative = inhibition) at 1uM
COc1cc2[nH]c(C(=O)NCC3CCCO3)cc2c(OC)c1OC (centres unmarked) | 18.3%
Cl.OCCN(Cc1ccccc1)CC(O)COc1ccc2c(c1)OCO2 (centres unmarked) | 8.49%
COc1ccc(C(=O)NCc2cn3ccccc3n2)cc1 | 12.9%
O=[N+]([O-])c1cccc(NP(=O)(Oc2ccccc2)Oc2ccccc2)c1 | -2.03%
O=C1NC(=Nc2ccccc2Cl)SC1(CO)CO | 10.2%
COc1ccc(CNC(=O)c2cc(=O)c3ccccc3o2)cc1 | 12.4%
COCc1ccc(C(=O)N2CCCC(C(=O)c3cc(F)ccc3F)C2)s1 (centres unmarked) | 7.23%
Cc1ccc(S(=O)(=O)Nc2ccc(-c3cn4ccc(C)cc4n3)cc2)cc1 | 8.97%
CC1CCN(CCn2c(=S)[nH]c3cc4c(cc3c2=O)OCO4)CC1 | 0.738%
COCCN(Cc1ccccc1)P(=O)(O)c1ccccc1OCC(=O)O | 9.21%
COC(=O)/C(C#N)=C/c1c(Oc2cccc(C)c2)nc2ccccn2c1=O | 4.32%
CCC(NC(=O)c1cncc(Br)c1)c1ccccc1 (centres unmarked) | 12.2%
COc1ccc(/C=C/C(=O)NCCC(=O)N2CCCN(C)CC2)cc1 | 1.16%
COc1cc(C(=O)N2CCCCC2)ccc1OCC(=O)Nc1ccc(F)cc1 | 9.45%
O=C(NCc1nnc2c(C(F)(F)F)cc(Cl)cn12)c1ccc2c(c1)OCO2 | 17.4%
CC(C)OCCCNC(=O)c1ccc(NS(C)(=O)=O)cc1 | 10.1%
O=C(NCc1ccccc1Cl)C1CCCO1 (centres unmarked) | 7.94%
Cc1ccc(NC(=O)CNC(=O)N2CC(=O)Nc3ccccc32)cc1F | 14.3%
CCO/C=C/C(O)(CNC(=O)c1ccc(C(C)(C)C)cc1)C(F)(F)F (centres unmarked) | 6.36%

SMILES | hERG current change (%, negative = inhibition) at 1uM
Cc1cc(C)cc(OCCN2CCOCC2)c1 | 15.9%
Cc1cc(NC(=O)COC(=O)C2CCN(C(=O)c3ccc(Cl)cc3)CC2)no1 | 4.08%
COc1ccc(NC(=O)CN(C)S(=O)(=O)c2ccc3c(c2)CCC(=O)N3)c(OC)c1 | -8.53%
Cc1ccc(C)c(N(C)S(=O)(=O)c2cccc3nsnc23)c1 | 13.5%
CCC(C)NC(=O)c1ccc(CSc2nc3ccncc3n2Cc2ccc(F)cc2)cc1 (centres unmarked) | -1.06%
COc1ccccc1/C=[N+](\[O-])C1SC(=S)N(C)C1(C)C (centres unmarked) | 13.5%
O=C(O)/C(=C\c1cccc(F)c1)c1ccc(S(=O)(=O)N2CCCCC2)s1 | 13.3%
COc1cccc(C(=O)NNC(=O)Cc2ccc(Cl)cc2)c1 | 15.5%
O=C1N/C(=C/c2ccc(N3CCOCC3)cc2)C(=O)N1Cc1ccc(F)cc1 | 17.1%
CCOC(=O)N1CCN(C(=O)CS(=O)(=O)Cc2nc(-c3ccccc3C)oc2C)CC1 | -25.2%
COc1ccc(OC)c(NC(=O)CN(C)CC(=O)Nc2ccccc2Cl)c1 | 0.169%
Cc1ccc2c(c1)C1CN(C)CCC1N2C(=O)COc1ccc(N(C)S(=O)(=O)c2cccs2)cc1 (centres unmarked) | -5.56%
Fc1ccc(C2=Nn3c(Cc4ccccc4F)nnc3SC2)cc1 | 19.7%
COc1ccc(-c2cccc(C(=O)N3CCOCC3)c2)cc1 | 16.6%
Cn1c(-c2ccc(F)cc2)cnc1SCC(=O)NCc1ccco1 | 3.7%
CC1CCc2nc3ccccc3c(C(=O)OCC(=O)N3CCc4ccccc43)c2C1 (centres unmarked) | 15.9%
CC1CCN(S(=O)(=O)c2cc(C(=O)NC3(C)CCS(=O)(=O)C3)ccc2Br)CC1 (centres unmarked) | -2.52%
O=C1NC(=Nc2ccccc2)SC1Cc1cccc(Cl)c1Cl (centres unmarked) | 7.27%
